Whole data set: some 33,000 sequences, median “E-score (-0.5 to 0.5)” near -0.012, cut for the highest 2% near 0.29. This is one part of the list.

In the assay the target is T1, Ybr033w (UniProt P38073).
T1 sequence: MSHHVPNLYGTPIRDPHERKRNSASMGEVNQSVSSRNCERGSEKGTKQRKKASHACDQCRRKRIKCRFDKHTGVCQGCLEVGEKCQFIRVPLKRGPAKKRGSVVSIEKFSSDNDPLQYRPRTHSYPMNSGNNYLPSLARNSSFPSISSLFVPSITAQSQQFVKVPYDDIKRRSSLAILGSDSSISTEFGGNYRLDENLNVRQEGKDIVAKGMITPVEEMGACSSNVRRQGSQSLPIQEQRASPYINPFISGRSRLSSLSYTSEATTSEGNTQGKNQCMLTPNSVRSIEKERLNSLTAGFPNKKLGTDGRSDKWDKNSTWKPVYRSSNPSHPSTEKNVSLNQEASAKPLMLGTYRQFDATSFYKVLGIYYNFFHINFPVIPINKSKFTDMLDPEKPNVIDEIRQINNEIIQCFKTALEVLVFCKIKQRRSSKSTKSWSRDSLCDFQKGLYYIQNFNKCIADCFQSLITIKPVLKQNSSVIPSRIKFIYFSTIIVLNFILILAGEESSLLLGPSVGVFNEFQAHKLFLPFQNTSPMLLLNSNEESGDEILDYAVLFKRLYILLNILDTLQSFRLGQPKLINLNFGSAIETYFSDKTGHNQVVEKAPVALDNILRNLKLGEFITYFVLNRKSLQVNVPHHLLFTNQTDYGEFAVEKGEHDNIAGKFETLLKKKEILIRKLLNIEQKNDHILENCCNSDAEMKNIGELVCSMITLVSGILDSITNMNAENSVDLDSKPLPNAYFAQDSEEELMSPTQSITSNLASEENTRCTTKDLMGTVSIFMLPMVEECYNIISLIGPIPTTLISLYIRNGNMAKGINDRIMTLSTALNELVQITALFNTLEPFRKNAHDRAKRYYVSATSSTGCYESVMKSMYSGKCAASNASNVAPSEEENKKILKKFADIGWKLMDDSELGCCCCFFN
As to the kind of experiment: PBM E-score (8-mer binding enrichment) (E-score (-0.5 to 0.5)); higher = stronger / more preferred TF binding; most listed sequences are background and not binding sites. Particulars: protein concentration: 200 nM; construct: GST-full length. On the procedure: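 Universal 'all 10-mer' protein binding microarrays (Agilent AMADID 015681) probed with GST-tagged S. cerevisiae TFs (full-length or DBD) made by in vitro transcription/translation (PURExpress), about 100-200 nM. Bound TF was detected with fluorescent anti-GST. Each ungapped 8-mer (which stands for itself and its reverse complement) is scored by the PBM enrichment score (E-score), a modified Wilcoxon-Mann-Whitney statistic from -0.5 to +0.5, computed with the Universal PBM Analysis Suite. Scale: above 0.35 generally sequence-specific binding.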
For ACGACCCC, the “PBM E-score” value is -0.354. Regarding CTACTAGC, the “PBM E-score” value came out at 0.189. With CAGATGAC the figure was -0.202. As to AACGGCAT, the “PBM E-score” value was 0.193. The value for ACAACAGT was 0.0383. Turning to ACTCAAAC, the “PBM E-score” value was determined as 0.152. The value for AACAATTG was 0.115; that for GGGGGGTA was -0.408; that for GACTTACC was -0.123. The value for CTCAGCGC was -0.114; that for GATCAACA was 0.237. On to CGTGAGAC, for which the “PBM E-score” value is -0.106. With CACGAGCA the figure was -0.151.

On to AAACCTGG, for which the “PBM E-score” value turned out to be 0.0176. Turning to ATCCGCGC, the “PBM E-score” value is -0.0147. Turning to TCCGCAGA, the “PBM E-score” value is -0.0907. For the sequence AATCTCGG, the “PBM E-score” value was -0.00202. The value for GGGCGCGA was 0.0038; that for CTCCAAGC was -0.153; that for AGAGGAAG was -0.00302. The value for CATACATG was 0.147; that for ACTCGCAA was -0.0107. As for ATGTTACG, the “PBM E-score” value is -0.00837. Regarding CAGCCTCC, the “PBM E-score” value was -0.313.

Consider CCCGCGGC, for which the “PBM E-score” value was -0.0958.

In the case of AAATCACG, the “PBM E-score” value came out at 0.222. Turning to CCCTCAGC, the “PBM E-score” value was -0.263.

For the sequence AGCCCCGG, the “PBM E-score” value was -0.0989. With GGCCTCAA the figure was -0.0245; with ACGCCCGG, -0.282.

As for GGGTTTTA, the “PBM E-score” value was -0.0797. With CTTTACTC the figure was 0.116; with CGGGGCTA, -0.19; with AAGTCTTG, -0.0842.

As to AGTACCCA, the “PBM E-score” value was 0.0112. For TCCTTAAA, the “PBM E-score” value worked out at 0.1. For the sequence CTGCTCCC, the “PBM E-score” value was -0.25. With ATAAAGTA, the “PBM E-score” value was 0.306. In the case of AAAAGCTA, the “PBM E-score” value came out at 0.141. With CACCCTCA the figure was -0.207; with ACCAGGCG, -0.125.

Regarding GAAGTCTA, the “PBM E-score” value is -0.0771.

Consider ATGCAAGA, for which the “PBM E-score” value came to 0.149. On to AGGATAAT, for which the “PBM E-score” value stood at 0.36. With AACATCTT the figure was 0.0167.

Regarding AGCATCGA, the “PBM E-score” value was -0.0226. With TGTGCGAA the figure was -0.002; with AAAACATT, 0.202; with CCATTAAG, -0.00675.

As for GCAATGAC, the “PBM E-score” value is -0.0882.

As to TCCCACAA, the “PBM E-score” value was -0.0618. For the sequence CGGTAGTC, the “PBM E-score” value is -0.0775. With TAATAAGA, the “PBM E-score” value stood at 0.184. With CTTATTCA the figure was -0.0207. For the sequence ATTAAAAT, the “PBM E-score” value came out at 0.276. The value for ATCCCTGG was -0.0953; that for CGGGACTC was -0.358; that for GACGTGGC was -0.236.

Regarding CGGAGTAA, the “PBM E-score” value was found to be 0.152. The value for AATAACTA was 0.227; that for CGTCGAGA was 0.0264; that for AGAAATAT was 0.299. With GACCTCTA the figure was -0.147. In the case of CAAGTAGG, the “PBM E-score” value was -0.0999. The value for AAACACGC was 0.105; that for GTCATAAA was 0.133. The value for ACGTCGCG was -0.0367. With GACGATCA, the “PBM E-score” value is -0.121. The value for AACATCGC was 0.0172; that for GCTTTGGA was 0.0527; that for AATTGGAT was 0.209. The value for CAACTCCA was 0.016; that for CCTAGGAA was 0.233. With ATAAAGTG the figure was 0.244; with CTGAAGCC, -0.102; with AATGGAAT, 0.221.

Regarding CCTTTACG, the “PBM E-score” value was determined as 0.0586.

On to GATGTCTA, for which the “PBM E-score” value is 0.0177. The value for CAGTACGC was -0.0269; that for CTGACTCA was -0.0835; that for ATAGTTTC was 0.158.

Take ACTAGATA: the “PBM E-score” value is 0.304. On to CAATGTGG, for which the “PBM E-score” value came to 0.00156. With ATTTTGTC the figure was 0.187. Turning to GGCGAGAC, the “PBM E-score” value is -0.183. With AAGTTATT the figure was 0.3.

The values are drawn from the supplement of paper PMC3334620.
